# Measurements as given in PubChem BioAssay AID624417 (National Center for Advancing Translational Sciences (NCATS), 2012).
# The whole screen tested about 410,000 compounds, of which about 6,400 (1.6%) were called active. The shares of active, inactive and inconclusive entries below differ from those in the screen. The call rests on the fitted dose curve; in most records, active means well fitted inhibition curve with a large enough effect; inconclusive means small, poorly fitted or top-dose-only effect; inactive means no such curve, though single readings can be large or run the other way. Potencies of inconclusive entries are left out as doubtful fits.
# Target: Glucagon-like peptide 1 receptor (Homo sapiens) (UniProt P43220)
# Assay: qHTS of GLP-1 Receptor Inverse Agonists (Inhibition Mode); further: nearly all actives have a fitted effect of over 55% in size
# Conditions: HEK293 GLP-1R CRE-luciferase, luminescence, 24 h; Potency: GLP-1R form is constitutively active unless noted; activity change, negative = inhibition: at 38.3 µM (top of the series) unless noted
# Procedure, shortened: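 Inverse agonists were sought by their lowering of basal cAMP reporter luciferase output in HEK293 cells stably carrying constitutively active human GLP-1R, after 24 h compound treatment.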
# On the % scale 0 is the no-effect control and ±100 the full control effect; potency means the concentration at half of the fitted maximal effect; tags describe the fitted curve by direction and shape.
# UniProt P43220, sequence (P43220 whole entry, looked up): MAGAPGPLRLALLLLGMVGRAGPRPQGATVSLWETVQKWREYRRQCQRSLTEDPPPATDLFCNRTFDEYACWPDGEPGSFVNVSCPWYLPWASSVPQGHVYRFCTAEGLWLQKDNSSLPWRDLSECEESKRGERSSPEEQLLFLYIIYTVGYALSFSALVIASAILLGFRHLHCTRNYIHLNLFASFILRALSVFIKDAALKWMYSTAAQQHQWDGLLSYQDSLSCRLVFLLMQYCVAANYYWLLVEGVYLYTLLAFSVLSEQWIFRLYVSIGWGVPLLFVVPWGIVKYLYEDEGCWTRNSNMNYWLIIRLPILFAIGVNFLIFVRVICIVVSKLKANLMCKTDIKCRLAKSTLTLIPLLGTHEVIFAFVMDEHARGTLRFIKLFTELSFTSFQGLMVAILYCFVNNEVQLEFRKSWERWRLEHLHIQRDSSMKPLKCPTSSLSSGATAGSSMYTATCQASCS
Structure (SMILES),Potency,"activity change, negative = inhibition"
CCCCn1nnnc1C(c1cccc2ccccc12)N1CCC2(CC1)C(=O)NCN2c1ccccc1 (centres undefined),"inconclusive [inhibitor, single point]",–
Cc1ccc(C(=O)N[C@@H](C)CN2C3=NC[C@H](Cc4ccccc4)N3C[C@H]2Cc2ccc(O)cc2)cc1Br,"inconclusive [inhibitor, single point]",–
O=C(c1ccccc1)N1C(=O)C(c2ccccc2)Oc2ccccc21 (centres undefined),"inconclusive [inhibitor, single point]",–
Cc1[nH]c2ccccc2c1CCNCc1cccnc1,–,inactive: -7.37%
N#Cc1ccccc1Cn1cc(C(=O)C2CC2)c2ccccc21,"inconclusive [inhibitor, partial curve, poor fit]",–
CCCCN(C(C)=O)c1ccc2c(c1)C1CC2CCN1Cc1ccccc1 (centres undefined),"inconclusive [inhibitor, single point]",–
CCOc1ccc(C(=O)OC2CC3CCC(C2)N3C)cc1 (centres undefined),"inconclusive [inhibitor, partial curve]",–
O=C(Cc1ccccc1)NC(Oc1ccccc1Cl)C(Cl)(Cl)Cl (centres undefined),–,inactive: -7.25%
CC(C)OP(=O)(OC(C)C)C(Nc1ccccc1)c1ccc2c(c1)OCO2 (centres undefined),"inconclusive [inhibitor, partial curve, poor fit]",–
COc1cc2c(c(OC)c1OC)-c1ccc(O)c(=O)cc1[C@@H](NC(C)=O)CC2,"inconclusive [inhibitor, partial curve, poor fit]",–
c1ccc(P(c2ccccc2)c2ccccn2)cc1,"inconclusive [inhibitor, single point]",–
C=CCS(=O)(=O)N1CCC(CCOc2ccccc2)(C(=O)OCC)CC1,"inconclusive [inhibitor, single point]",–
O=c1[nH]c2ccccc2n1C1CCN(C(c2ccccc2OC(F)(F)F)c2nnnn2Cc2ccccc2)CC1 (centres undefined),"inconclusive [inhibitor, partial curve]",–
Cc1cc(C)cc(-n2c(C)cc(/C=C3\C(=O)NC(=O)N(C)C3=O)c2C)c1,–,inactive: 6.65%
CC(C)CCNc1nnnc2c1sc1nc(N3CCOCC3)c3c(c12)CC(C)(C)SC3,"inconclusive [inhibitor, single point]",–
Cc1ccc(-c2noc(=O)n2CC(=O)Nc2ccc(S(=O)(=O)NC3CC3)cc2)cc1,"inconclusive [inhibitor, single point]",–
O=C(Nc1ccc(Cl)c(Cl)c1)c1ccco1,"inconclusive [inhibitor, single point]",–
O=c1[nH]c(=S)[nH]c(O)c1N=Nc1ccc(SC(F)F)cc1,"inconclusive [inhibitor, partial curve, poor fit]",–
O=C(NCCCN1CC1)Nc1cccc2ccccc12,–,inactive: 0.0035%
O=c1[nH]c(=O)n(CCC2=CCCCC2)c(O)c1/C=N/Nc1ccccc1,"inconclusive [inhibitor, partial curve, poor fit]",–

Structure (SMILES),Potency,"activity change, negative = inhibition"
COC(=O)C1=C(c2cccc(OCc3ccccc3)c2)C[C@@H]2CC[C@H]1N2C(=O)NCCc1ccc(F)cc1,"inconclusive [inhibitor, single point]",–
O=C(Oc1ccc(Cl)c2ccccc12)N1CCCCC1,"inconclusive [inhibitor, single point]",–
S=C(NCCc1ccccc1)N1Cc2cc(-c3ccccc3)ccc2-n2nncc2C1,"inconclusive [inhibitor, single point]",–
O=C(c1ccc2c(c1)OCO2)C1CCCN(Cc2c(F)cccc2Cl)C1 (centres undefined),"inconclusive [inhibitor, single point]",–
COc1ccc(CN2CCN(C(=O)Cn3c(=O)oc4cc(Cl)ccc43)CC2)c(OC)c1OC,"inconclusive [inhibitor, single point]",–
CN(C)C(=S)SSC(=S)N(C)C,"inconclusive [inhibitor, single point]",–
CN(C)c1ccc(Cc2ccc(N(C)C)cc2)cc1,"inconclusive [inhibitor, single point]",–
Cc1ccc(OCC(=O)N2CCN(Cc3ccc(F)cc3)CC2)cc1,–,inactive: -27%
NS(=O)(=O)c1ccc(CCNc2ccn3nc(-c4cccc(C(F)(F)F)c4)cc3n2)cc1,"inconclusive [inhibitor, single point]",–
Cc1cccc(N2CCN(C(=O)CCNS(=O)(=O)c3ccc4c(c3)oc(=O)n4C)CC2)c1C,"inconclusive [inhibitor, single point]",–
COC(=O)C1=C(c2ccc(F)cc2OCc2ccccc2)C[C@@H]2CC[C@H]1N2C(=O)NCc1cc(C)oc1C(F)(F)F,"inconclusive [inhibitor, full curve, poor fit]",–
CCOC(=O)[C@]12Cc3c(cc(OC)c(OC)c3OC)[C@H]1N(C(C)C)C(=O)c1cc(OC)ccc12,"inconclusive [inhibitor, single point]",–
COc1cc(C2SCC(=O)Nc3c2c(C)nn3-c2ccccc2)cc(OC)c1OC (centres undefined),–,inactive: 3.57%
Cc1ccc(C(=O)Oc2cc(N)n(S(=O)(=O)c3ccc(F)cc3)n2)cc1,"inconclusive [inhibitor, partial curve, poor fit]",–
CCOC(=O)[C@]12Cc3cc(C)ccc3[C@H]1N(Cc1ccccc1)C(=O)c1cc(OC)ccc12,"inconclusive [inhibitor, partial curve, poor fit]",–
Cc1ccc(OCC(=O)N2CCN(CC3CC4C=CC3C4)CC2)cc1 (centres undefined),"inconclusive [inhibitor, full curve, poor fit]",–
CCc1ccc(N2C(=O)NC(=O)/C(=C\c3cccn3CCOc3ccc(C(C)C)cc3)C2=O)cc1,"inconclusive [inhibitor, full curve, poor fit]",–
CNC(=O)Oc1ccccc1C1CCCCC1,"inconclusive [inhibitor, single point]",–
CCOP(=O)(c1ccccc1)c1nc(-c2ccc(F)cc2)oc1N1CCCCC1 (centres undefined),"inconclusive [inhibitor, partial curve, poor fit]",–
